# Assay results: PubChem BioAssay AID1508623 (National Center for Advancing Translational Sciences (NCATS), 2021)
# The campaign covered roughly 48,000 compounds. About 450 (0.94%) were called active. Not shown: some 19% with an inconclusive outcome. Calls follow the shape of the dose curve; as a rule, active = well fitted inhibition curve with a large enough effect; inconclusive = small, poorly fitted or top-dose-only effect; inactive = no such curve, though single readings can be large or run the other way. Some of the results follow.
# Assay: Primary qHTS for Identification of Small Molecule Inhibitors of Huntingtin Promoter Activity; also: nearly all actives have a fitted effect of over 50% in size
# Conditions: HEK293 HTT promoter firefly luciferase reporter (activity 0% = vehicle and -100% = no light), 24 h; series mostly up to 57.5 µM; activity change, negative = inhibition: at the top concentration
# Procedure, shortened: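 Firefly luciferase readout (Dual-Glo, 10 min RT) after 24 h, 37 °C compound exposure (final up to 57.5 uM) of HEK293 reporter cells cultured 24 h beforehand; PTC124 at 50 uM final as control inhibitor; activity scaled vehicle 0%, zero RLU -100%.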
# Potency is read from the fitted curve at half-maximal effect.
SMILES,"activity change, negative = inhibition",Potency
O=C(O)CCCc1c[nH]c2ccccc12,inactive: -12%,
Cc1cccc(N2CCN(C(=O)C3CCCN(S(=O)(=O)c4ccc5c(c4)oc(=O)n5C)C3)CC2)c1C (stereo not drawn),,active: 5.01 µM
COc1ccccc1NC(=O)C(C)Sc1nnc2ccc3ccccc3n12 (stereo not drawn),inactive: -6.69%,
Cc1ccc(CNC(=O)CN2C(=O)CCn3nc(-c4ccccc4)cc32)cc1,inactive: -21%,
Clc1ccc2c(c1)C(N1CCNCC1)=Nc1ccccc1O2,inactive,
CCc1cccc2c(-c3ccccc3)nc(SCC(=O)Nc3ccccc3OC)nc12,inactive: -5.4%,
CCCn1c(=O)c2sccc2n2c(CCCC(=O)NC3CCC(C)CC3)nnc12 (stereo not drawn),inactive: -12.2%,
CCCCC/C(C=O)=C\c1ccccc1,inactive: 2.73%,
O=C(O)CCc1nc(-c2ccccc2)c(-c2ccccc2)o1,inactive: -7.76%,
O=C(Cn1c(=O)c2cccn2c2ccc(F)cc21)N1CCN(c2ccccc2F)CC1,inactive: 0.354%,
CC(C)Nc1cc(C(F)(F)F)cc2nc(NC(=O)c3cccnc3)nn12,inactive: 4.82%,
Fc1ccc(-n2ncc3c(NCCCn4ccnc4)ncnc32)cc1,inactive: 16.8%,
COc1cccc(C2NC(=O)c3n[nH]c(-c4cccs4)c32)c1 (stereo not drawn),inactive: -13.2%,
COc1ccc(Br)cc1CNC(=O)c1cnc2sc(N3CCCC3)nn2c1=O,inactive: -0.923%,
CN1CCN(C(CNC(=O)c2ccccc2F)c2ccc3c(c2)OCO3)CC1 (stereo not drawn),inactive: -10.9%,
O=C(Cn1c(=O)nc(-c2ccccc2)c2ccccc21)NCCc1ccc(Cl)cc1,inactive: -12.7%,
Cc1cc2[nH]c(=O)c(=O)[nH]c2cc1S(=O)(=O)N1CCN(c2cccc(C(F)(F)F)c2)CC1,inactive: 12.5%,
CCCCN(CC)CCNC(=O)CCn1cnc2onc(-c3ccc(F)cc3)c2c1=O,inactive: -0.879%,
COc1ccc(NC(=O)c2sc3nc(-c4cc5ccc(OC)cc5oc4=O)[nH]c(=O)c3c2C)cc1,inactive: -0.935%,
Cc1cccc(-n2cc(-c3ccccc3)c3c(N4CCC(C)CC4)ncnc32)c1,inactive: -21.9%,
COc1ccc(-c2cn3nc(N4CCCC(C(=O)Nc5cc(C)ccc5C)C4)sc3n2)cc1 (stereo not drawn),inactive: -10.4%,
COc1cc(NC(=O)NCC2CCN(Cc3ccccc3Cl)CC2)cc(OC)c1OC,inactive: -9.63%,
CCOC(=O)c1ccccc1NC(=O)c1c(C)oc2ncnc(N3CCOCC3)c12,inactive: -5.18%,
COc1cccc(-n2c(=O)c3c(C)c(C)sc3n(Cc3ccccc3C#N)c2=O)c1,inactive: -17.1%,
COc1ccc(-c2nc3sc(CCNC(=O)C(=O)Nc4ccccc4C#N)c(C)n3n2)cc1,inactive: -4.15%,

SMILES,"activity change, negative = inhibition",Potency
COCCCNC(=O)c1ccc(Cn2c(=O)c3ccccc3n(Cc3ccc(Cl)cc3)c2=O)cc1,inactive: -1.53%,
COc1ccc(CC(=O)NCC(c2cccs2)S(=O)(=O)c2ccc(F)cc2)cc1 (stereo not drawn),inactive: -19.6%,
Cc1ccc(C(=O)N(Cc2ccco2)c2ccccn2)cc1,inactive: 17.5%,
COc1cc(NC(=O)c2nn(C)c3c2COc2ccccc2-3)cc(OC)c1OC,inactive: -11.2%,
CCOc1ccccc1NC(=O)C1=C(C)Nc2ncnn2C1c1ccco1 (stereo not drawn),inactive: -8.65%,
COc1ccc(CCNC(=O)c2ccc(Cn3c(SCc4ccccc4)nc4cccnc43)cc2)cc1,inactive: -29.6%,
CC(C)c1cc(-c2nc(-c3ccc(Cl)cc3)no2)n[nH]1,inactive: 8.11%,
O=C(CCn1c(=O)c2ccccc2n(CC(=O)Nc2ccc(F)cc2)c1=O)NCCc1ccccc1,inactive: -4.04%,
Cc1cccc(NC(=O)Cn2c(=O)n(Cc3ccccc3)c(=O)c3oc4ccccc4c32)c1C,inactive: -6.76%,
CCc1ccc(C2CC(=O)Nc3c2c(=O)nc2c(C)cccn32)cc1 (stereo not drawn),inactive: -7.37%,
CC(C)c1ccc(NC(=O)c2ccc(CN3CC(=O)N4CCCCC4C3=O)cc2)cc1 (stereo not drawn),inactive: -32.8%,
COc1ccccc1C(=O)Nc1ccc(C(=O)OCc2cc(=O)n3c4c(sc3n2)CCCC4)cc1,inactive: -19.2%,
CCOc1ccc(C2C(C(N)=O)=C(C)Nc3nc(SCc4ccccc4F)nn32)cc1 (stereo not drawn),inactive: -1.14%,
COc1ccccc1NC(=O)c1cnn(-c2ccccc2)c1-n1cccc1,inactive: -1.07%,
O=C(O)CCn1ccc2cc(S(=O)(=O)N3CCCCCC3)ccc21,inactive: -12.7%,
CSc1ccc(CCNC(=O)c2csc3c2CCCCC3)cc1,inactive: -24%,
Cc1cccn2c(=O)c(C(=O)N3CCN(c4ccccc4)CC3)cnc12,inactive: 36.4%,
Cc1ccc(C(=O)c2c(N)c(C(=O)Nc3cccc(C(F)(F)F)c3)c3ccccn23)cc1,inactive: -1.84%,
CCCCOc1ccc(C(=O)Nc2cccc(-c3nc4ccccc4o3)c2C)cc1,inactive: -4.1%,
Cc1nc2nc(NCc3ccc(Br)cc3)[nH]n2c(=O)c1Cc1ccccc1,inactive: -12.2%,
CCCCC(CC)CNC(=O)CCCCCn1c(=O)[nH]c2ccsc2c1=O (stereo not drawn),inactive: -29.1%,
O=C(c1ccc2c(c1)N(Cc1ccc(Cl)cc1)C(=O)c1ccccc1S2(=O)=O)N1CCOCC1,inactive: -9.92%,
CCc1ccc(-n2c(=O)c3ccccc3n(Cc3ccccc3C#N)c2=O)cc1,inactive: -9.83%,
COc1cccc(C2C(C(N)=O)=C(C)Nc3ncnn32)c1 (stereo not drawn),inactive: 4.63%,
O=C(CSc1nc2c(oc3ccccc32)c(=O)n1-c1ccccc1)Nc1ccc(F)c(Cl)c1,inactive: -16.9%,

SMILES,"activity change, negative = inhibition",Potency
COc1ccc(OC)c(NC(=O)C2=C(C)C(=O)OC23CCN(C(C)C)CC3)c1,inactive: -11.9%,
CCOC(=O)c1c(NC(C)=O)c2c3c(sc2n1Cc1cc(C)ccc1C)CCCC3,inactive: -21.4%,
CCOc1ccccc1NC(=O)Cn1c(=O)n(Cc2ccco2)c(=O)c2sc3ccccc3c21,inactive: -20.1%,
COc1ccccc1NS(=O)(=O)c1cn(C)c(C)n1,inactive: -6.86%,
COc1ccc(N2CC(NC(=O)COc3cccc(C)c3)CC2=O)cc1OC (stereo not drawn),inactive: -9.03%,
Cc1ccc(C)c(N2CCN(C(=O)Cn3nc(C)c4sc5ccccc5c4c3=O)CC2)c1,inactive: -9.06%,
Cc1c(C(C)C)c(=O)n(-c2ccccc2)n1C,inactive: 3.15%,
CCC(O)c1nc2ccccc2n1Cc1cc(C)ccc1C (stereo not drawn),inactive: -12.2%,
CCOc1ccc(NC(=O)CSc2nc3ccsc3c(=O)n2CCC(C)C)cc1,inactive: 3.43%,
Cc1ccc(NC(=O)C2CCN(S(=O)(=O)c3ccc4c(c3)CCCC(=O)N4)CC2)cc1N(C)C,inactive: -35.3%,
COc1ccc(OC)c(NC(=O)C(C)n2c(=O)c(-c3ccccc3NC(C)=O)nc3ccccc32)c1 (stereo not drawn),inactive: -12.8%,
COc1ccc(-c2nc(CSCC(=O)NCCC(C)C)c(C)o2)cc1OC,inactive: -25.2%,
O=C(CC1Sc2ccccc2NC1=O)Nc1cccc(C(F)(F)F)c1 (stereo not drawn),inactive: -31.4%,
COc1ccc(OC)c(CNC(=O)NCc2noc3ccc(C)cc23)c1,inactive: -13%,
CCN1C(=O)c2ccccc2S(=O)(=O)c2ccc(C(=O)NCc3ccccc3OC)cc21,inactive: -14.3%,
O=C(CSc1cn(CC(=O)N2CCCCC2)c2ccccc12)NCc1ccccc1Cl,inactive: -21.2%,
CC(C)c1ccc(NC(=O)c2cc3c(=O)[nH]c4ccccc4c3n2C)cc1,inactive: 1.24%,
Cc1ccc(-n2nc(C)c3c(C(=O)NCCc4ccc(S(N)(=O)=O)cc4)cc(C)nc32)cc1,inactive: -16.9%,
O=C(CN1C(=O)c2cccnc2Sc2ccccc21)Nc1cc(F)ccc1F,inactive: -5.89%,
CCCCN(C)CCCNC(=O)c1cn(CC)c2ccc(S(=O)(=O)N3CCc4ccccc4C3)cc2c1=O,inactive: -3.09%,
COc1ccccc1CNC(=O)c1cc(S(=O)(=O)N2CCCC(C)C2)cn1C (stereo not drawn),inactive: -29%,
Cc1ccc(-n2nc(C)c3c(C(F)(F)F)cc(-c4cccnc4)nc32)cc1C,inactive: -10.9%,
Cc1ccc2oc(-c3ccc(NC(=O)c4oc5ccc(Cl)cc5c4C)cc3)nc2c1,inactive: 5.76%,
Cc1cccc(NC(=O)Cn2c(SCC(=O)NCc3ccccc3)nc3ccccc32)c1C,inactive: -21.9%,
O=C(c1cnn(-c2ccc(F)cc2)c1-n1cccc1)N1CCN(c2ccccc2)CC1,inactive: -12.6%,

SMILES,"activity change, negative = inhibition",Potency
CCOc1ccc(-c2cn3nc(CC(C)C)sc3n2)cc1,inactive: 52.8%,
CCOC(=O)c1ccc(N=C2SC(C(=O)Nc3ccccc3)CC(=O)N2C)cc1 (stereo not drawn),inactive: -21.8%,
COc1ccc(CNC(=O)C2(c3cccs3)CCOCC2)cc1,inactive: -3.12%,
O=C(CCCCCCC(=O)Nc1cccnc1)NO,inactive: 182%,
CCN(CC)S(=O)(=O)c1cccc(C(=O)Nc2ccccc2C(=O)Nc2ccc(OC)cc2)c1,inactive: 2.09%,
Cc1ccccc1-c1nc(CN2CCC(C(=O)NC(C)C)CC2)c(C)o1,inactive: -3.17%,
CCCCc1nn2c(=O)cc(COC(=O)CNC(=O)COc3ccc(C)cc3)nc2s1,inactive: -26.7%,
CCOc1ccc(NC(=O)c2c(NCc3cccs3)sc3c2CCC(C)C3)cc1 (stereo not drawn),inactive: -23.4%,
CCOC(=O)c1cc2c(=O)n3ccccc3nc2n(C(C)C)c1=NC(=O)c1c(-c2c(F)cccc2Cl)noc1C,inactive: -23.7%,
COc1ccc2c(c1)CC(C(=O)Nc1cc(OC)c(OC)c(OC)c1)CO2 (stereo not drawn),inactive: -20.7%,
CN(C)c1ccc(C(=O)NCc2ccc3c(c2)CCN3C(=O)c2ccc(Cl)cc2)cc1,inactive: -7.83%,
COc1ccc(Cl)cc1NC(=O)CCn1nc(C)cc1C,inactive: 0.204%,
COc1ccc(C(=O)NCc2ccc3c(c2)CCN3C(=O)c2ccc(Cl)cc2)c(OC)c1,inactive: -16%,
COc1cc(OC)cc(C(=O)Nc2cccc(-c3cn4ccsc4n3)c2)c1,inactive: 17.3%,
CC(C)OCCCn1c(SCc2ccccc2Cl)nc2c(sc3ccccc32)c1=O,inactive: 1.71%,
CCOc1ccc(NC(=O)CSc2cn(CC(=O)N3CCOCC3)c3ccccc23)cc1,inactive: 6.22%,
CCC1CN(C(=O)N2CCC(C(=O)NCCC3=CCCCC3)CC2)c2ccccc2O1 (stereo not drawn),inactive: 12.5%,
CCC(Cc1ccccc1)NC(=O)c1cccc(Nc2nc3ccccc3nc2-n2nc(C)cc2C)c1 (stereo not drawn),inactive: -8.37%,
CCC1CCCCN1C(=O)Cn1c(=O)n(-c2ccc(Cl)c(Cl)c2)c(=O)c2c(C)c(C(=O)N(C)C)sc21 (stereo not drawn),inactive: -2.14%,
COc1ccc(CCNC(=O)c2cc(=O)[nH]c3ccc(S(=O)(=O)N4CCCCC4)cc23)cc1OC,inactive: -4.24%,
CCOc1ccc(NC(=O)C2CCC(CNS(=O)(=O)c3ccc4c(c3)CCCC(=O)N4)CC2)cc1 (stereo not drawn),inactive: -20.1%,
CC(=O)Nc1c(C)nn(-c2ccccc2)c1N1CCC(C(=O)NCc2cccc(F)c2)CC1,inactive: -17.5%,
Cn1nc(C(=O)NCc2ccccc2Cl)c2c1-c1ccccc1SC2,inactive: -6.48%,
